Measurements: PMC4336329 (PLoS ONE, 2015)
Out of some 310,000 compounds screened, about 2,200 (0.71%) showed an effect of 50% or more. The effect is printed as a negative number. The list shows a part of the results.

Biological target: human ether-à-go-go-related gene (hERG) potassium channel (human, UniProt Q12809)
Test: primary screen, population patch clamp on CHO cells stably expressing hERG

human ether-à-go-go-related gene (hERG) potassium channel, sequence (Q12809 whole entry, looked up): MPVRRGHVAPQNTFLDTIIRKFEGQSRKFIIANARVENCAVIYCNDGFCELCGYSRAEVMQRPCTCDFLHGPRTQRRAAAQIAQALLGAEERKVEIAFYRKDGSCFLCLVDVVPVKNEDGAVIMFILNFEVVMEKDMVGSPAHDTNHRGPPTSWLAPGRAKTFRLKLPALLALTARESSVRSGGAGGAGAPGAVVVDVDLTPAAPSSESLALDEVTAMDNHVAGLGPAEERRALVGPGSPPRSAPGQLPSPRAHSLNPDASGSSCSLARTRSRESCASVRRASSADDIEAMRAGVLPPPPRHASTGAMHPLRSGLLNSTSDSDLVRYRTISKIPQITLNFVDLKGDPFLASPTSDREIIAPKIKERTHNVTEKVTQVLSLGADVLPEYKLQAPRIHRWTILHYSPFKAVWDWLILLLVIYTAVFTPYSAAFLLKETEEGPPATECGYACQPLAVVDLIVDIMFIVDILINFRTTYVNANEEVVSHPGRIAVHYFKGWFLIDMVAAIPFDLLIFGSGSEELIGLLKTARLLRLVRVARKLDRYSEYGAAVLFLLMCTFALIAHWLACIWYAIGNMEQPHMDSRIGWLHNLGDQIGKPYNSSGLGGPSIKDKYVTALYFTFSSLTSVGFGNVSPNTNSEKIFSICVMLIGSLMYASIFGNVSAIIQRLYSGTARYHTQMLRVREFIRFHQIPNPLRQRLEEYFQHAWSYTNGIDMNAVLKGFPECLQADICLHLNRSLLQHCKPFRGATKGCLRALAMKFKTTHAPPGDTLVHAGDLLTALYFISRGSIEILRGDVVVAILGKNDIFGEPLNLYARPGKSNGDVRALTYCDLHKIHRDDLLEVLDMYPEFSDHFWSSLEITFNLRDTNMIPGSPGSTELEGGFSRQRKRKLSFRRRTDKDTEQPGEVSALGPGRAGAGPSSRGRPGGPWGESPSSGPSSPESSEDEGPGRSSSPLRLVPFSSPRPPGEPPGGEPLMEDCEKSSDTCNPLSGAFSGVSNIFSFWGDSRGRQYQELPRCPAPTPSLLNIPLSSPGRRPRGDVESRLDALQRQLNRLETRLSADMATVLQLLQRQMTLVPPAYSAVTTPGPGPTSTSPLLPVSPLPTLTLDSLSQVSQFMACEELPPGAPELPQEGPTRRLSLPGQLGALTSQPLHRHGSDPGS

Going from `CCN(Cc1nc(-c2ccccc2)no1)C(=O)c1ccoc1C` to `O=C(COc1ccccc1)NCc1ccc2c(c1)OCO2`, the “hERG current change (%, negative = inhibition) at 1uM” value falls from 15.6% to 3.49%.

First: CC1CC(NC2=NCCS2)CC(C)(C)C1 (stereo not shown)
Second: Cc1ccccc1C(=O)Nc1ccnn1C1CCN(Cc2cnn(C)c2)CC1
The “hERG current change (%, negative = inhibition) at 1uM” value of the first is higher: 5.88% for the first, -1.26% for the second.

Going from `CCc1cccc2c(C(=O)COC(=O)c3nn(C)c(=O)c4ccccc34)c[nH]c12` to `COc1cccc(Cn2nnc(C(=O)NCc3ccccc3Cl)c2N)c1`, the “hERG current change (%, negative = inhibition) at 1uM” value rises from 4.05% to 7.58%.

Going from `CC(=O)c1ccc(NC(=O)CSC(C)C)cc1` to `COc1ccc(NC(=O)CN(C)C(=O)CSC(c2ccccc2)c2ccccc2)cc1`, the “hERG current change (%, negative = inhibition) at 1uM” value rises from -5.93% to 3.44%.

Going from `COc1cc(S(=O)(=O)NCc2ccncc2)c(OC)cc1Br` to `O=C(COc1ccc2c3c(c(=O)oc2c1)CCCC3)NCc1ccncc1`, the “hERG current change (%, negative = inhibition) at 1uM” value rises from -4.83% to 10.2%.

Compared with `CCCNC(=O)c1ccccc1NC(=O)c1ccccc1SC`, `O=C(Cc1ccccc1)NCC(=O)Nc1ccccc1Br` is higher in “hERG current change (%, negative = inhibition) at 1uM” value: 13% for the first, 17.9% for the second.

First: O=C(Cc1ccc(Cl)c(Cl)c1)N1CCOCC1
Second: CCOc1ccc(S(=O)(=O)N2CCCC(C(=O)N3CCOCC3)C2)cc1Cl (stereo not shown)
The “hERG current change (%, negative = inhibition) at 1uM” value of the first is higher: 18.5% for the first, 9.84% for the second.

Going from `O=C(c1ccc2c3c(cccc13)CC2)C1CCCN(Cc2ncc[nH]2)C1` (stereo not shown) to `CCOc1cccc(CN2CCCC(N3CCc4cc(OC)c(OC)cc4C3)C2)c1O` (stereo not shown), the “hERG current change (%, negative = inhibition) at 1uM” value rises from 2.15% to 13.3%.

Compared with `Cc1ccc(NC(=O)/C(C#N)=C(\N)C(Cl)(Cl)Cl)nc1`, `CCOC(=O)c1c[nH]n(-c2ccc(C)cc2)c1=O` is lower in “hERG current change (%, negative = inhibition) at 1uM” value: 10.3% for the first, 10.1% for the second.

First: C#CCOCCOCCOCCNc1nc(N2CCN(C(=O)[C@H](CCCCN)n3cc([C@@H](N)C(C)CC)nn3)CC2)nc(N2CCN(C(=O)[C@H](Cc3ccc(O)cc3)n3cc([C@@H](N)CC(C)C)nn3)CC2)n1.Cl (stereo partly shown)
Second: Cc1ccc(NC(=O)CSc2nc3ccccc3c(=O)n2CCCN2CCCCC2)cc1C
The “hERG current change (%, negative = inhibition) at 1uM” value of the first is higher: -6.15% for the first, -36% for the second.

Going from `O=C(Nc1ccc(Cl)cc1F)c1cccc2ccccc12` to `O=S(=O)(Nc1ccc(O)c2ccccc12)c1ccc(OC(F)(F)F)cc1`, the “hERG current change (%, negative = inhibition) at 1uM” value falls from 12.8% to 7.82%.

Compared with `CN(C1=NC(=O)CS1)c1ccc(O)cc1`, `COc1ccc(C(=O)/C=C/c2ccc(N(C)C)cc2)c(OC)c1` is higher in “hERG current change (%, negative = inhibition) at 1uM” value: -3.57% for the first, 6.75% for the second.

Going from `COC(c1ccc(Cl)cc1)(c1ccc(Cl)cc1)C(Oc1nc(C)cc(C)n1)C(=O)O` (stereo not shown) to `COC(=O)c1cc(NC2c3ccccc3C(=O)N2c2ccc(Cl)cn2)cc(C(=O)OC)c1` (stereo not shown), the “hERG current change (%, negative = inhibition) at 1uM” value rises from 11.1% to 16.4%.

First: CN1CCN(c2nc3ccccn3c(=O)c2/C=C(\C#N)S(=O)(=O)c2ccc(Cl)cc2)CC1
Second: Cn1cnc(S(=O)(=O)N2CCN(c3ccc(Cl)cc3)CC2)c1
The “hERG current change (%, negative = inhibition) at 1uM” value of the first is lower: -4.87% for the first, 0.126% for the second.

Compared with `COc1cccc(CN(C)C(=O)c2cccc(OCc3ccccc3)c2)c1`, `COc1cccc(C(=O)NCC(=O)N/N=C(\C)Cc2ccccc2)c1` is higher in “hERG current change (%, negative = inhibition) at 1uM” value: 12.3% for the first, 14.3% for the second.

First: Cc1ccc(S(=O)(=O)NCC(c2ccccc2)N2CCN(CCC#N)CC2)cc1 (stereo not shown)
Second: O=S(=O)(c1ccccc1F)N1CCN(CCOc2ccccc2)CC1
The “hERG current change (%, negative = inhibition) at 1uM” value of the first is higher: 6.5% for the first, 3.57% for the second.

Going from `Cc1ccc2[nH]c(C)c(CCN(Cc3cccnc3)C(=S)NC(C)(C)C)c2c1` to `COc1cccc(CN(C(=O)Cn2nnc(-c3ccccc3F)n2)C(C(=O)NC(C)(C)C)c2ccncc2)c1` (stereo not shown), the “hERG current change (%, negative = inhibition) at 1uM” value rises from 6.78% to 7.2%.

First: Cc1cnc(C)c(N(C)NC(=S)Nc2ccccc2)n1
Second: Oc1cnn(-c2ccccc2)c1
The “hERG current change (%, negative = inhibition) at 1uM” value of the first is lower: -3.38% for the first, 5.96% for the second.

Compared with `Clc1cccc(C2NCc3ccccc3-n3cccc32)c1` (stereo not shown), `Cc1ccc(N=c2c([N+](=O)[O-])nn(-c3ccccc3)n2O)c(C)c1` is lower in “hERG current change (%, negative = inhibition) at 1uM” value: 18.2% for the first, -8.64% for the second.

Going from `COc1cccc(NC(=O)C2CCCN2S(=O)(=O)c2ccc3c(c2)C(C)(C)C(=O)N3C)c1` (stereo not shown) to `COc1ccc(OC)c(S(=O)(=O)N2CCCC(N3CCN(c4ccccc4)CC3)C2)c1` (stereo not shown), the “hERG current change (%, negative = inhibition) at 1uM” value falls from 15.8% to 8.5%.

First: COc1ccc2nc(Nc3nc(CSc4ccc(C)cc4)cc(=O)[nH]3)nc(C)c2c1
Second: CCNc1nc(Sc2ccc(C)cc2)cc(C(F)(F)F)n1
The “hERG current change (%, negative = inhibition) at 1uM” value of the first is lower: 5.9% for the first, 9.96% for the second.

First: Cc1ccc(C(C(=O)NCc2ccc(F)cc2)N(CCCO)C(=O)C2COc3ccccc3O2)o1 (stereo not shown)
Second: NC(=O)CC(NC(=O)c1ccccc1)c1ccc(NCCc2cccc(F)c2)c([N+](=O)[O-])c1 (stereo not shown)
The “hERG current change (%, negative = inhibition) at 1uM” value of the first is lower: -7.88% for the first, 14.8% for the second.

First: O=C1NC2(CCCCC2)Cc2ccccc21
Second: CCOC(=O)c1oc2ccccc2c1NC(=O)C1CCCCC1
The “hERG current change (%, negative = inhibition) at 1uM” value of the first is higher: 8.55% for the first, -2.3% for the second.

Compared with `Cc1ccc(S(=O)(=O)/N=S(\C)C(C)C)cc1` (stereo not shown), `CC(C)c1ccc(-c2noc(C3CCCN(S(C)(=O)=O)C3)n2)cc1` (stereo not shown) is lower in “hERG current change (%, negative = inhibition) at 1uM” value: 14.4% for the first, 7.38% for the second.

Going from `CCCC(=O)Nc1cc(S(=O)(=O)N2CCCCC2)ccc1N1CCOCC1` to `O=C(Nc1ccccc1N1CCCCC1)c1cc(S(=O)(=O)N2CCOCC2)ccc1Cl`, the “hERG current change (%, negative = inhibition) at 1uM” value falls from 12.5% to 7.72%.

Going from `CC(Oc1ccc(Cl)cc1)c1ccc(C#N)c(=O)[nH]1` (stereo not shown) to `COc1ccc(NC2CC(=O)N(c3ccc(C(=O)O)cc3)C2=O)cc1` (stereo not shown), the “hERG current change (%, negative = inhibition) at 1uM” value rises from -2.59% to 10.5%.

First: NC(=O)c1ccccc1NC(=O)CCCN1C(=O)CCC1=O
Second: CC(=O)c1cn(CC(=O)NCc2ccco2)c2ccccc12
The “hERG current change (%, negative = inhibition) at 1uM” value of the first is higher: 10.5% for the first, 8.69% for the second.

Going from `COc1cc(C(=O)NC(=S)Nc2ccccc2N2CCOCC2)cc(OC)c1OC` to `CCOc1ccc(/C=C/C(=O)N(CC)CC(=O)Nc2ccc3c(c2)OCCO3)cc1OC`, the “hERG current change (%, negative = inhibition) at 1uM” value falls from 10.7% to -7.86%.

Going from `COc1ccc(N2CCN(C3CC(=O)N(Cc4ccccc4)C3=O)CC2)cc1` (stereo not shown) to `Cc1ccccc1C(=O)N1CCN(c2ccc([N+](=O)[O-])c(NCc3ccco3)c2)CC1`, the “hERG current change (%, negative = inhibition) at 1uM” value falls from 7.93% to 5.64%.

Compared with `COc1ccc(S(=O)(=O)NCCc2csc(-c3cccnc3)n2)cc1`, `COc1ccc2c(c1)C=C(C(=O)OCc1cccnc1)CO2` is higher in “hERG current change (%, negative = inhibition) at 1uM” value: -9.72% for the first, 10.4% for the second.

Going from `C[C@@]12C(=O)N(c3cccc(F)c3)C(=O)N1[C@H](c1ccc(Cl)cc1)[C@@H]1C(=O)N(C3CCCCC3)C(=O)[C@@H]12` to `CCc1ccc(CN2CCC(n3nccc3NC(=O)c3cccc(F)c3)CC2)cc1`, the “hERG current change (%, negative = inhibition) at 1uM” value falls from 5.1% to -78.3%.

Compared with `O=C(O)CNS(=O)(=O)c1cccc(Cl)c1`, `O=C(O)c1cc2c(cn1)[nH]c1ccccc12` is lower in “hERG current change (%, negative = inhibition) at 1uM” value: 16.2% for the first, 6.5% for the second.

First: Cc1coc2cc3oc(=O)c(CC(=O)N[C@@H](CC(C)C)C(=O)O)c(C)c3cc12
Second: CCCNC(=O)c1onc(CSc2ccc(F)cc2)c1C(=O)NC(C)C
The “hERG current change (%, negative = inhibition) at 1uM” value of the first is higher: 12.7% for the first, 2.99% for the second.

Compared with `C=CCNC(=O)CC(C)C(CCCCC)C(=O)O` (stereo not shown), `CCCC(OC(=O)CC1Sc2ccccc2NC1=O)C(=O)NCc1ccco1` (stereo not shown) is lower in “hERG current change (%, negative = inhibition) at 1uM” value: 12% for the first, 9.61% for the second.

Going from `O=C(Cc1nn[nH]n1)Nc1ccc(F)cc1F` to `COC(CNC(=O)CN1CCN(Cc2ccc(F)cc2Cl)C1=O)OC`, the “hERG current change (%, negative = inhibition) at 1uM” value rises from 5.94% to 7.51%.

First: COc1cccc(-c2nn3c(-c4cc(C)[nH]n4)nnc3s2)c1
Second: COc1ccc(-c2nnc(SCc3ccccc3F)o2)cc1OC
The “hERG current change (%, negative = inhibition) at 1uM” value of the first is lower: -37.5% for the first, 13% for the second.

First: O=C(/C=C/c1ccco1)N1CCCC(c2ccccc2)C1 (stereo not shown)
Second: Cc1ccc(S(=O)(=O)N2CCOCC2)cc1C(=O)NCc1ccccc1CN1CCCC1
The “hERG current change (%, negative = inhibition) at 1uM” value of the first is higher: 7.68% for the first, -25.6% for the second.

Going from `COc1ccc2c(c1)C1CC(C)(NC(=O)C1S(=O)(=O)c1ccc(F)cc1)O2` (stereo not shown) to `O=C(Cc1c(F)cccc1Cl)NNC(=O)Nc1ccc2c(c1)OCO2`, the “hERG current change (%, negative = inhibition) at 1uM” value rises from 7.97% to 17%.

First: CCc1[nH]c(=O)c(C#N)c2c1CCCC2
Second: Cc1nn(C)c(Oc2cccc(Cl)c2)c1C#N
The “hERG current change (%, negative = inhibition) at 1uM” value of the first is lower: -6.15% for the first, 3.37% for the second.

Going from `CCC(=O)N1CCc2cc(Br)cc(S(=O)(=O)C3(C(=O)OC)CC3)c21` to `Cc1ccccc1NC(=O)C1CCN(C(=O)NC2CCCCC2)CC1`, the “hERG current change (%, negative = inhibition) at 1uM” value falls from 13.1% to 6%.

Going from `O=C(NCc1ccc2c(c1)OCO2)c1nc(Cn2ccc([N+](=O)[O-])n2)no1` to `O=C(CSc1n[nH]c(-c2ccncc2)n1)c1cccc([N+](=O)[O-])c1`, the “hERG current change (%, negative = inhibition) at 1uM” value falls from 6.56% to 1.59%.

Going from `O=C(NCCO)/C(=C\c1cccc([N+](=O)[O-])c1)NC(=O)c1ccco1` to `Cc1ccc(C)c(/C=N/Nc2ccccn2)c1`, the “hERG current change (%, negative = inhibition) at 1uM” value falls from 8.45% to -5.26%.

First: N#C/C(=C\c1ccc(OC(F)F)cc1)C(=O)N1CCCCC1
Second: O=C(C1CC1)N1CCN(c2ccc(F)cc2)CC1
The “hERG current change (%, negative = inhibition) at 1uM” value of the first is lower: 4.05% for the first, 17.9% for the second.

Going from `Cn1cncc1C#Cc1ccc2cc(CCCO)oc(=O)c2c1` to `CC(NC(=O)Cc1ccc(NC2=NC3CS(=O)(=O)CC3S2)cc1)c1ccccc1` (stereo not shown), the “hERG current change (%, negative = inhibition) at 1uM” value falls from 15.6% to 10.4%.
